Measurements as given in PubChem BioAssay AID1347417 (National Center for Advancing Translational Sciences (NCATS), 2020).
Among all 120,000 compounds or so, about 5,300 (4.4%) were called active. Inconclusive results, whose numbers are uncertain, are shown with a selection of clear calls. Calls follow the shape of the dose curve; as a rule, active = well fitted inhibition curve with a large enough effect; inconclusive = small, poorly fitted or top-dose-only effect; inactive = no such curve, though single readings can be large or run the other way. A potency beside an inconclusive call is a rough fit, not a confirmed value.

assay: qHTS Primary assay for Inhibitors of Plasmodium falciparum Dd2 growth in vitro; also: nearly all actives have a fitted effect of over 65% in size;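 as to activity, negative = inhibition: plate controls were DMSO vehicle for no effect and reference drug for full effect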; conditions: P. falciparum Dd2 growth, SYBR Green, 72 h; activity, negative = inhibition: at 28.9 µM (top of the series) unless noted; series mostly up to 28.9 µM
Summary of the method: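 Readout: SYBR Green fluorescence, 485 nm excitation, 535 nm emission, after ~16 h lysis at 37C. Before that, Dd2-infected red cells (2.5% hematocrit) grew 72 h with compound, 29 uM top final concentration.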
Potency is read from the fitted curve at half-maximal effect; tags tell the direction and shape of the fitted curve.

| Compound | Potency | activity, negative = inhibition |
| --- | --- | --- |
| O=S(=O)(Cc1ccccc1)N1CCC(c2noc(-c3ccncc3)n2)C1 (stereo unspecified) | inconclusive: 1.78 µM [inhibitor, partial curve, poor fit] | – |
| O=C(NC1CCN(c2cc(-c3cccs3)[nH]n2)C1)c1cccc(Cl)c1 (stereo unspecified) | inconclusive: 12.6 µM [inhibitor, single point] | – |
| CNC(=O)c1cc2cc(-c3c(C)noc3C)nc(-c3ccc(F)cc3OC)c2o1 | inconclusive: 17.8 µM [inhibitor, single point] | – |
| CN(C(=O)c1csc(Cc2ccccc2)n1)C1CCCN(CCc2ccccc2)C1 (stereo unspecified) | inconclusive: 15.8 µM [inhibitor, single point] | – |
| COc1ccc(-c2nc(CSCC(=O)N3CCN(c4ccccc4F)CC3)c(C)o2)cc1 | active: 6.31 µM | – |
| C[S+](=O)([O-])N1CC2(CCCN(Cc3ccccn3)C2)Cc2ccccc21 (stereo unspecified) | inconclusive: 5.01 µM [inhibitor, partial curve] | – |
| O=C(NC[C@H]1Cn2c(-c3ccc(F)cc3)cnc2CO1)c1cccnc1 | inconclusive: 35.5 µM [inhibitor, single point] | – |
| CN1c2cc(C(=O)N3CCc4ccccc4C3)ccc2C(=O)N2CCCCC21 (stereo unspecified) | inconclusive: 8.91 µM [inhibitor, partial curve, poor fit] | – |
| COCCN1CC(CO)C2(CCN(Cc3cccc(Cl)c3F)CC2)C1 (stereo unspecified) | inconclusive: 7.94 µM [inhibitor, partial curve, poor fit] | – |
| COc1ccc(CN2CCNc3cc(Nc4cccnc4)ncc3C2)cc1O | inconclusive: 10 µM [inhibitor, single point] | – |
| COc1ccccc1-c1ccc2ncn(C3CC3)c(=O)c2n1 | inconclusive: 31.6 µM [inhibitor, single point] | – |
| CC(C)(C)n1cnc2c(N3CC4CCC(C3)N4CC(F)(F)F)ncnc21 | inconclusive: 8.91 µM [inhibitor, partial curve, poor fit] | – |
| CN(Cc1cccnc1)c1nc2c(c(=O)[nH]1)CCN(Cc1ccccc1C(F)(F)F)CC2 | inconclusive: 2.82 µM [inhibitor, partial curve, poor fit] | – |
| COC(=O)[C@@H]1Cc2c([nH]c3ccccc23)[C@H]2C[C@@H](NCc3cccnc3)C[C@@H](c3ccc(F)c(F)c3)N21 | inactive | – |
| Cc1ccccc1Nc1c(-c2ccc(N3CCOCC3)cc2)nc2cccc(C)n12 | active: 10 µM | – |
| Cc1cccc(NC(=O)Cn2nc3n(c2=O)CCCCC3)c1C | inactive | – |
| Cc1noc(-c2cn(C3CCN(C(=O)Cc4ccc(Cl)cc4)CC3)nn2)n1 | inconclusive: 1.41 µM [inhibitor, partial curve, poor fit] | – |
| CCOc1ccccc1NC(=O)CSc1ncc2c(n1)-c1ccccc1N(CC)S2(=O)=O | inconclusive: 14.1 µM [inhibitor, partial curve, poor fit] | – |
| CCc1nc2c(c(-c3ccc(O)cc3)n1)CN(Cc1cccc(C(F)(F)F)c1)CC2 | inconclusive: 2.82 µM [inhibitor, single point] | – |
| CN(C)c1nc2c(c(=O)[nH]1)CCN(C(=O)CCC1CCCC1)CC2 | inconclusive: 0.891 µM [inhibitor, single point] | – |
| O=C(O)C1(Oc2ccc(Cl)cc2)CCN(c2cnccn2)CC1 | inactive | – |

| Compound | Potency | activity, negative = inhibition |
| --- | --- | --- |
| Cc1ccc(CN2C(=O)c3ccccc3Sc3ccc(C(=O)N4CCOCC4)cc32)cc1 | inconclusive: 11.2 µM [inhibitor, single point] | – |
| CCOc1ccc(CN(CCc2ccc3c(c2)OCO3)Cc2cccc(Br)c2)cc1 | inactive | – |
| O=C(Nc1ccc(Oc2ccccc2)cc1)c1cc2n(n1)CC(c1ccc(Cl)cc1)OC2 (stereo unspecified) | inconclusive: 20 µM [inhibitor, single point] | – |
| CCCc1cc(N2CCN(c3ccccc3F)CC2)n2cnnc2n1 | inactive | – |
| c1ccc(C2=NOC3(CCN(Cc4c[nH]c5ccccc45)CC3)C2)cc1 | inconclusive: 10 µM [inhibitor, single point] | – |
| COCCCNC(=O)C1(C)CN(C)Cc2ccc(NCc3ccccc3)nc21 (stereo unspecified) | inconclusive: 1.58 µM [inhibitor, partial curve, poor fit] | – |
| O=C(c1ccsc1)N1CCCn2cc(-c3ccccc3)nc21 | inactive | – |
| CC(C)(CC(=O)O)CC(=O)N[C@H]1C[C@H]2C(=O)Nc3ccccc3C(=O)N2C1 | inconclusive: 31.6 µM [inhibitor, single point] | – |
| O=C(Nc1ccccc1)N1CCC(N2CC(OCC3CC3)C23CCOCC3)CC1 (stereo unspecified) | inconclusive: 0.282 µM [inhibitor, full curve, poor fit] | – |
| CC(=O)N(C1CC1)C1CCOC2(CCN(C(=O)Nc3ccccc3F)CC2)C1 (stereo unspecified) | inactive | – |
| CCOC(=O)c1oc2c(c1C)-c1nn(Cc3cccc(Cl)c3)cc1CC2 | inconclusive: 11.2 µM [inhibitor, single point] | – |
| O=C(Nc1cccnc1)c1nc2c(o1)CCN(Cc1ccc3[nH]ccc3c1)CC2 | inconclusive: 5.62 µM [inhibitor, partial curve] | – |
| CCn1nccc1C(=O)N1CCCn2cc(-c3ccccc3)nc21 | inactive | – |
| CCOC(=O)c1cccc(NC(=O)CSc2ncc3c(n2)-c2ccc(Cl)cc2N(Cc2ccccc2)S3(=O)=O)c1 | inconclusive: 11.2 µM [inhibitor, single point] | – |
| CCOc1ccc(CNC(=O)CSc2c3c(nc4cc(Cl)ccc24)CCCC3)cc1 | inconclusive: 10 µM [inhibitor, partial curve] | – |
| O=C(COc1ccccc1F)Nc1ccc2nc(SCC(=O)N3CCOCC3)sc2c1 | inconclusive: 10 µM [inhibitor, single point] | – |
| CCCOc1nccnc1NC1CCN(C(=O)c2ccsc2)CC1 | – | inactive: 13.5% [at 5.79 µM] |
| O=[S+]([O-])(c1cccs1)N1CC(Oc2ccc3c(c2)OCO3)C1 | inactive | – |
| Cc1cc2c(n1-c1ccc(C(=O)NCc3cccc(Br)c3)cc1)CCC(C)C2 (stereo unspecified) | active: 11.2 µM | – |
| Cc1ccccc1Cn1c(=O)n(CCCCC(=O)NCc2ccc3c(c2)OCO3)c(=O)c2ccccc21 | inconclusive: 3.98 µM [inhibitor, partial curve] | – |
